Source: PubChem BioAssay AID624296 (National Center for Advancing Translational Sciences (NCATS), 2012)
About 9,900 (2.8%) of roughly 350,000 compounds were called active. This list was built around the results that the source calls inconclusive (neither active nor inactive); the mix of calls is not that of the screen. The call rests on the fitted dose curve; in most records, active means well fitted activation curve with a large enough effect; inconclusive means small, poorly fitted or top-dose-only effect; inactive means no such curve, though single readings can be large or run the other way. Potencies of inconclusive entries are left out as doubtful fits.

Test: A quantitative high throughput screen for small molecules that induce DNA re-replication in MCF 10a normal breast cells. Further: nearly all actives have a fitted effect of over 50% in size. On activity, positive = re-replication: % of control where 0% means no effect.
Details: MCF 10A DNA re-replication, Hoechst nuclear intensity, 48 h; activity, positive = re-replication: at 46.1 µM (top of the series)
Potency means the concentration at half of the fitted maximal effect; tags describe the fitted curve by direction and shape.

| Structure (SMILES) | activity, positive = re-replication | Potency |
| --- | --- | --- |
| O=C(N/N=C/c1cnc(N2CCCCC2)s1)c1ccc(Cl)cc1 | inactive: -5.39% |  |
| CC1(CCc2ccc3c(c2)OCO3)NC(=O)c2ccccc2N1 (configuration not stated) |  | inconclusive [activator, single point] |
| CCCN(CC1CC1)c1nc(C)nc(Nc2c(Cl)cc(Cl)cc2Cl)c1Cl |  | inconclusive [activator, full curve, poor fit] |
| COC(=O)c1cccc(F)c1C(=O)c1cccc2ccccc12 |  | inconclusive [activator, single point] |
| CN(CCOc1ccccc1)C(=O)c1ccc(N2CCCC2)c([N+](=O)[O-])c1 | inactive: -14.2% |  |
| O=c1cc(-c2cccs2)oc2ccc(Cl)cc12 | inactive: 5.13% |  |
| Cn1c(SCC(=O)c2ccc(F)cc2)nc2cccnc21 |  | inconclusive [activator, single point] |
| O=C(CCN1CCN(Cc2ccccc2)CC1)Nc1cccc(Cl)c1 | inactive: 6.11% |  |
| Cc1ccc(NC(=O)CSc2nn(-c3ccccc3)c(=S)s2)cc1S(=O)(=O)N(C)C | inactive: 15.5% |  |
| CSc1c(CC(=O)Nc2ccccc2)n(Cc2ccccc2)c2ccccc12 |  | inconclusive [activator, single point] |
| COc1ccc2[nH]c3c(c2c1)CCN1C(=O)N([C@@H](C)C(=O)NCc2c(F)cccc2Cl)C(=O)[C@]31C |  | inconclusive [activator, partial curve, poor fit] |
| O=C(CSc1n[nH]c(=O)n1Cc1ccco1)Nc1ccccc1 | inactive: -0.999% |  |
| N#Cc1cc2c(nc1SCC(=O)Nc1sc3c(c1C#N)CCC3)CCCC2 |  | inconclusive [activator, full curve] |
| Brc1c(-c2ccc3c(c2)OCO3)nc2ncccn12 |  | inconclusive [activator, single point] |
| CN(C)N=Nc1nc2c([nH]1)c(=O)n(C)c(=O)n2C | inactive: 0.755% |  |
| Cc1c(C#N)c(N)nc2c3c(sc12)NC(=O)CC3c1ccc(Cl)cc1 (configuration not stated) |  | inconclusive [activator, single point] |
| Oc1c(Cl)cc(CN2CCOCC2)c2cccnc12 |  | active: 11.6 µM |
| CC(=O)N1CCN(c2ccc(NC(=O)c3cc(Cl)ccc3Cl)cc2)CC1 | inactive: 24.4% |  |
| COc1ccccc1NC(=O)NCC(=O)Nc1ccc(F)c(F)c1 |  | inconclusive [activator, single point] |
| FC(F)(F)Oc1ccc(Nc2nc(N3CCOCC3)nc(N3CCOCC3)n2)cc1 |  | inconclusive [activator, single point] |
| O=C(O)COCC(=O)N1CCN(c2cc(C(F)(F)F)nc3ccccc23)CC1 | inactive: 4.93% |  |
| Cc1cc(C)cc(NC(=O)COC(=O)CCCC2=NS(=O)(=O)c3ccccc3N2)c1 |  | inconclusive [activator, partial curve, poor fit] |
| COc1ccccc1CCC(=O)OCC(=O)N1CCN(S(=O)(=O)c2ccc(C)cc2C)CC1 |  | inconclusive [activator, single point] |
| COCC(=O)Nc1cc(Cl)ccc1C | inactive: 0.599% |  |

| Structure (SMILES) | activity, positive = re-replication | Potency |
| --- | --- | --- |
| CCN1C(=O)c2cccc3c(S(=O)(=O)Nc4ccccn4)ccc1c23 |  | inconclusive [activator, partial curve, poor fit] |
| COc1ccc(-c2cc(C(=O)OCc3ccccn3)c3ccccc3n2)cc1 |  | inconclusive [activator, single point] |
| C[C@H](CO)N1C[C@H](C)[C@@H](CN(C)S(=O)(=O)c2cccs2)Oc2ccc(NC(=O)CCC(F)(F)F)cc2C1=O | inactive: 0.417% |  |
| O=C(c1ccc(NS(=O)(=O)c2cccs2)cc1)N1CCN(c2ccccc2Cl)CC1 |  | inconclusive [activator, partial curve, poor fit] |
| CCOC(=O)c1cccc(NC(=O)CN(c2ccc(OC)cc2)S(=O)(=O)c2c(C)noc2C)c1 | inactive: 20.8% |  |
| CCOC(=O)Cc1nnc2c(Nc3ccccc3F)nc3nonc3n12 |  | inconclusive [activator, single point] |
| COc1cc(/C=C2/NC(=O)NC2=O)cc(Br)c1OCc1ccccc1 |  | inconclusive [activator, partial curve] |
| Cc1ccc(OCC(=O)Nc2oc(-c3ccccc3)c(-c3ccccc3)c2C#N)cc1 |  | active: 16.4 µM |
| CCN(CC)S(=O)(=O)c1ccc(N2CCOCC2)c(NC(=O)COc2ccccc2C)c1 | inactive: 7.2% |  |
| COc1cc2c(cc1OC)CN(C(=O)c1cc3ccccc3oc1=O)CC2 |  | inconclusive [activator, single point] |
| CC1CCCN(S(=O)(=O)c2ccc(C(=O)Nc3sc4c(c3C(N)=O)CCN(C)C4)cc2)C1 (configuration not stated) |  | inconclusive [activator, single point] |
| O=S(=O)(Nc1cccc(-c2ccc(N3CCCCCC3)nn2)c1)c1ccccc1Cl |  | inconclusive [activator, full curve, poor fit] |
| COc1ccc(CC(=O)NNC(=S)Nc2ccccc2)cc1Br | inactive: -1.73% |  |
| COc1cc(/C=N/NC(=O)CSc2ccccn2)ccc1OC(C)C |  | inconclusive [activator, full curve, poor fit] |
| CCOC(=O)C1(CCc2ccccc2)CCN(Cc2ccn[nH]2)CC1 |  | inconclusive [activator, partial curve] |
| Cc1cc(=O)[nH]c(SCC(=O)N2C(C)CCCC2C)n1 (configuration not stated) | inactive: -31.6% |  |
| CCOc1ccccc1C(=O)NC1CCN(CC(=O)Nc2cc(OC)ccc2OC)CC1 | inactive: -2.21% |  |
| C/C(=C\C1CCCCC1)C(NC(=O)c1ccc(C(F)(F)F)cc1)c1ccc(-c2ccccc2)cc1 (configuration not stated) |  | inconclusive [activator, single point] |
| Cc1ccc(CN2CCN(/N=C/c3cc(Br)ccc3F)CC2)cc1 |  | inconclusive [activator, partial curve, poor fit] |
| O=C1C(Cl)=C(N2CCOCC2)C(=O)N1c1cccc(Cl)c1 |  | inconclusive [activator, single point] |
| O=C(Nc1nnc(-c2cc(Cl)ccc2Cl)o1)c1ccco1 |  | inconclusive [activator, single point] |
| CCC(=NC(C)c1ccccc1)c1c(O)n(C)c(=O)n(C)c1=O (configuration not stated) | inactive: 23.7% |  |
| CC(NC(=O)CN(C)CC(=O)Nc1ccc(Cl)c(C(F)(F)F)c1)c1ccccc1 (configuration not stated) |  | inconclusive [activator, single point] |
| COc1ccc(C(=O)Nc2ccccc2C(=O)Nc2cccc(C)n2)cc1 |  | inconclusive [activator, single point] |

| Structure (SMILES) | activity, positive = re-replication | Potency |
| --- | --- | --- |
| OCC1(Cc2ccc(F)cc2F)CCCN(CCCc2ccccc2)C1 (configuration not stated) |  | inconclusive [activator, single point] |
| Cc1ccc2cc(C#N)c(NCCNC(=S)NCCCN(C)C)nc2c1C |  | active: 20.6 µM |
| CCC(C(=O)Nc1cc(C(=O)Nc2cc(C)ccn2)ccc1Cl)c1ccccc1 (configuration not stated) | inactive: -3.9% |  |
| C[C@H]1OC(OC2C(O)[C@@H](O)C(OC3C(O)[C@@H](O)C(O)O[C@@H]3CO)O[C@@H]2CO)[C@H](O)C(O)C1N[C@H]1C=C(CO)[C@@H](O)[C@H](O)C1O (some centres not stated) | inactive: -4.01% |  |
| Cc1ccc(CC(=O)OCC(=O)c2ccc[nH]2)cc1C | inactive: 5.28% |  |
| CCOc1ccc(NS(=O)(=O)c2cc(NC(=O)c3ccc(C)cc3)ccc2Cl)cc1 |  | active: 2.06 µM |
| Cc1sc(NC(=O)c2c(F)cccc2F)nc1-c1ccccc1 |  | inconclusive [activator, full curve, poor fit] |
| Fc1ccc(CN2C3=NCCN3c3ccccc32)cc1 |  | inconclusive [activator, partial curve, poor fit] |
| CN1CCN(Cc2cc(Cl)c3cccnc3c2OC(=O)c2cccs2)CC1 |  | inconclusive [activator, partial curve, poor fit] |
| CCCCCCCCNS(=O)(=O)CCNCc1ccccc1 | inactive: -2.24% |  |
| COc1ccc(CCNC(=O)C2CC(c3cccc([N+](=O)[O-])c3)=NO2)cc1 (configuration not stated) | inactive: 0.0779% |  |
| CSc1nc(N(C)NC(=O)c2ccccc2)c2ccccc2n1 |  | active: 1.64 µM |
| Cc1ccc(C(=O)CCNc2ccccc2)o1 |  | active: 7.08 µM |
| O=C(Nc1nc2cc3c(cc2s1)OCO3)C1=COCCO1 |  | inconclusive [activator, partial curve, poor fit] |
| CCN1CCN(S(=O)(=O)c2ccc(Cl)c(C(=O)Nc3ccccc3N3CCOCC3)c2)CC1 | inactive: 26.1% |  |
| O=C1S/C(=C\c2ccc(O)c([N+](=O)[O-])c2)C(=O)N1c1ccccc1Cl |  | active: 1.64 µM |
| [N-]=[N+]=CC(=O)CNC(=O)[C@@H](Cc1ccccc1)N1C(=O)c2ccccc2C1=O | inactive: 1.73% |  |
| O=C(c1ccc2c(=O)n(Cc3ccco3)c(=S)[nH]c2c1)N1CCN(c2ccccc2)CC1 | inactive: 23.7% |  |
| COc1ccc(OC)c(/C=C/C(=O)OCC(=O)N2C(C)CCCC2C)c1 (configuration not stated) | inactive: 7.25% |  |
| Cc1ccc2c(c1)c1nnc(SCC(=O)Nc3cccc(Cl)c3C)nc1n2CC(=O)O |  | inconclusive [activator, partial curve, poor fit] |
| CSc1nnnn1-c1c(C)cc(C)cc1C |  | inconclusive [activator, partial curve, poor fit] |
| COc1cc(C2C3=C(COC3=O)Oc3cc4c(cc32)OCO4)ccc1OC(C)=O (configuration not stated) |  | inconclusive [activator, full curve, poor fit] |
| Cc1cccc(NC(=O)CN2CCc3cc4c(cc3C2C)OCCCO4)c1 (configuration not stated) | inactive: 12.9% |  |
| O=C(Nc1ccc(Cl)cc1)c1ccc2c(c1)OCO2 |  | inconclusive [activator, single point] |
